Source: patent publication WO2015104322A1 (dated 2015)

Columns and labels:
[1] = molecular target: T1, endogenously expressed TNFR1 on HEK293 cells (UniProt P19438 30-455, limits assumed); assay: flow cytometry on HEK293 cells transfected with truncated TNFR1 (TR), 10 ug/ml DMS5541-biotin
T1 construct: whole, on cells; also called endogenous TNFRl; background TNFRl levels in HEK293 cells (TR cell line)
T1 sequence (looked up): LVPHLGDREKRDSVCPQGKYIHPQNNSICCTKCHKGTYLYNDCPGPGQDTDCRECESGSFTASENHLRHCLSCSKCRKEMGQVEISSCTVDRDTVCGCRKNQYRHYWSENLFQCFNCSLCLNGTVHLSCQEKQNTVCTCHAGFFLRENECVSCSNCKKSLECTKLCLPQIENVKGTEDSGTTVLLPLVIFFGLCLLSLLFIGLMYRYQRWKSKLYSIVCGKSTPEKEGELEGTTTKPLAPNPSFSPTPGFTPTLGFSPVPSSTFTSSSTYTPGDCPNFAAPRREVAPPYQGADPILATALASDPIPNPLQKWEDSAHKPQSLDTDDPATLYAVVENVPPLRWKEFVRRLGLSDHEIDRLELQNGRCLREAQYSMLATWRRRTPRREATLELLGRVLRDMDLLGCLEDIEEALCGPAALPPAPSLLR

[2] = molecular target: T2, TNFR1 C33Y, full-length (C33Y FL), on transfected cells (UniProt P19438 30-455, limits assumed); assay: flow cytometry on transfected HEK293 cells
T2 construct: whole, on cells; Position 33 follows the TRAPS variant numbering; also called TRAPS mutant TNFRl C33Y
T2 sequence (looked up): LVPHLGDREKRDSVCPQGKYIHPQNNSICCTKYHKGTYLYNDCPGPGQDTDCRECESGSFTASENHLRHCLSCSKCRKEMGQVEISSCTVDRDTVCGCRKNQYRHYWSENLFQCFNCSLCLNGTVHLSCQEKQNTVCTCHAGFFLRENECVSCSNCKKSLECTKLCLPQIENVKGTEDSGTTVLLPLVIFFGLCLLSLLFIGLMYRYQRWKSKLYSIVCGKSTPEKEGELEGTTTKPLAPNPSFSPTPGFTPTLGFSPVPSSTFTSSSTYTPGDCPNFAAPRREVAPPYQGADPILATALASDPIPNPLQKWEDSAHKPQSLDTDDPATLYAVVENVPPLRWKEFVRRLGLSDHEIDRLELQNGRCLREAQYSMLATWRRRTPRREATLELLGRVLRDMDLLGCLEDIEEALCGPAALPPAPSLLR

[3] = molecular target: T3, TNFR1 wild type, full-length (WT FL), on transfected cells (UniProt P19438 30-455, limits assumed); assay: flow cytometry on HEK293 cells expressing full-length TNFR1, 10 ug/ml DMS5541-biotin, Streptavidin-Alexa Fluor 647
T3 construct: whole, on cells; Doxycycline-inducible expression; The cells also carry endogenous TNFR1; also called TNFRl full length
T3 sequence (looked up): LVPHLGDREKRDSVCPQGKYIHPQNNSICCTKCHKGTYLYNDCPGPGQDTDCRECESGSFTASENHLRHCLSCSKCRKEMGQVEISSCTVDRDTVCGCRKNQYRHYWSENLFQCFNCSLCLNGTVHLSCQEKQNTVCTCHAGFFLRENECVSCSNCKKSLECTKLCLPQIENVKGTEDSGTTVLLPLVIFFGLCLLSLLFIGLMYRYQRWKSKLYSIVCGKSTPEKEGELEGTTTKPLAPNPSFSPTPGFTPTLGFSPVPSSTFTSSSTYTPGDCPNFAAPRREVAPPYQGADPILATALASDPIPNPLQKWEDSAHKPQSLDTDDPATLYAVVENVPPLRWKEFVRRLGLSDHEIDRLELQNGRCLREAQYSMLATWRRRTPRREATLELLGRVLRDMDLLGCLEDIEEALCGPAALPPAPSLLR

binding result [1]: binds
binding result [2]: binds
binding result [3]: binds
B1: DMS5541 (bispecific antibody)
chain: EVQLLESGGGLVQPGGSLRLSCAASGFTFDKYSMGWVRQAPGKGLEWVSQISDTADRTYYAH[about 20 residues omitted]MNSLRAEDTAVYYCAIYTGRWVPFEYWGQGTLVTVSSASTDIQMTQSPSSLSASVGDRVTITCRASRPIGTTLSWYQQKPGKAPKLLILWNSRLQSGVPSRFSGSGSGTDFTLTISSLQPEDFATYYCAQAGTHPTTFGQGTKVEIKR
modifications: biotinylated with EZ-Link Sulfo-NHS-LS-Biotin for the flow cytometry of Example 1
notes: also called DMS5541-biotin; D S5541
